# Tested on: Wnt/β-catenin signal
# Assay: Wnt/β-catenin reporter EC50 in 293STF cells expressing GPA33
# Assay type: cell-based, human
# Procedure: The Wnt/β-catenin signal promoting activity of the anti-GPA33 antibody scFv-Rspo fragment fusion recombinant prepared in Example 18 was measured as follows. ONE-Glo™ + Tox Luciferase Reporter and Cell Viability Assay (Promega) was used for the measurement. […] The cells into which each vector was introduced were cultured for 2 days in DMEM medium containing 10% FBS (Nichirei), and then the cells were collected and seeded at 100 µL/well on a CulturPlate-96 (PerkinElmer). The next day, 100 µL of (1) control medium or (2) medium containing recombinant Rspo1FL-Fc or various anti-GPA33 antibody scFv-Rspo fragment fusion recombinant proteins prepared in Example 10 (10-fold serial dilution between 10000 and 0.001 ng/mL, final concentration 5000 to […]) was added to each well. […] The fluorescence value was measured using a Microplate Reader SH-9000 (CORONA). 100 µL of ONE-Glo (trademark) Reagent (Promega) was added to the plate and incubated at room temperature for 3 min, after which the luminescence value was measured using a NIVO microplate reader (PerkinElmer). […] Samples with low activity for which the EC50 value could not be determined were marked NC. […]
# The Wnt/β-catenin signal promoting activity of the anti-GPA33 antibody scFv-Rspo fragment-Fc conjugate R1CRD-hFcm-tCAP-G17 prepared in Example 19 was measured as shown in Example 20. […]
molecule,measurement,setting,value
R1CRD-hFcm-tCAP-G9: conjugate of azidized R1CRD-Fcm and DBCO-G9 scFv by tCAP and click reaction (conjugate) SRGIKGKRQRRISAEGSQACAKGCELCSEVNGCLKCSPKLFILLERNDIRQVGVCLPSCPPGYFDARNPDMNKCIKCKIEHCEACFSHNFCTKCKEGLYLHKGRCYPACPEGSSAANGTMECSSPAEPKSADKTHTCPPCPAPEAEGAPSVFLFPPKPKDTLMISRTPEVTCVVVDVSHEDPEVKFNWYVDGVEVHNAKTKPREEQYNSTYRVVSVLTVLHQDWLNGKEYKCAVSNKALPASIEKTISKAKGQPREPQVYTLPPSREEMTKNQVSLTCLVKGFYPSDIAVEWESNGQPENNYKTTPPVLDSDGSFFLYSKLTVDKSRWQQGNVFSCSVMHEALHNHYTQKSLSLSPGK scFv: QVQLVQSGGGLVKPGGSLRLSCAASGFTFSNYNMNWVRQAPGKGLEWVSSISSSGDFMYYADSVKGRFTISRDDAKNSLYLQMNSLRAEDTAVYYCAREGPGTPFDYWGQGTLVTVSSGGGGSGGGGSGSTGS[about 100 residues not written out]EPRTPRPCLVPRGSHHHHHHGA,EC50,"293STF cells expressing GPA33, Afamin/Wnt3a 883 ng/mL, 18 hr",0.13 nM
same,EC50(MOG)/ EC50(GPA33),"ratio, NC assumed >30 nM",>230.1
